# Measured values reported in PubChem BioAssay AID360 (National Center for Advancing Translational Sciences (NCATS), 2006).
# Out of some 48,000 compounds screened, about 550 (1.1%) were called active. Not shown: some 4% with an inconclusive outcome. No stated cut-off is given here; in the data, active means potency below about 15 µM; inconclusive means mostly about 16 µM to 33 µM; inactive means weaker than that. Some of the results follow.
# Target: Lysosomal acid glucosylceramidase (Homo sapiens) (UniProt P04062)
# Assay: Glucocerebrosidase;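 further: the screen sought inhibitors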
# Settings: purified enzyme, resorufin glucoside fluorescence (screen aimed at inhibitors), 20 min; series mostly up to 77 µM
# Procedure, shortened: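 Compounds titrated against 0.2 nM normal enzyme, 30 uM resorufin beta-D-glucopyranoside substrate, citrate/phosphate buffer with taurocholate and tween-20, pH 5.9. Reaction ran 20 min at room temperature; fluorescence (Ex 548/Em 600) gave AC50.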
# Potency means the concentration at half of the fitted maximal effect.
# UniProt P04062, sequence (P04062 whole entry, looked up): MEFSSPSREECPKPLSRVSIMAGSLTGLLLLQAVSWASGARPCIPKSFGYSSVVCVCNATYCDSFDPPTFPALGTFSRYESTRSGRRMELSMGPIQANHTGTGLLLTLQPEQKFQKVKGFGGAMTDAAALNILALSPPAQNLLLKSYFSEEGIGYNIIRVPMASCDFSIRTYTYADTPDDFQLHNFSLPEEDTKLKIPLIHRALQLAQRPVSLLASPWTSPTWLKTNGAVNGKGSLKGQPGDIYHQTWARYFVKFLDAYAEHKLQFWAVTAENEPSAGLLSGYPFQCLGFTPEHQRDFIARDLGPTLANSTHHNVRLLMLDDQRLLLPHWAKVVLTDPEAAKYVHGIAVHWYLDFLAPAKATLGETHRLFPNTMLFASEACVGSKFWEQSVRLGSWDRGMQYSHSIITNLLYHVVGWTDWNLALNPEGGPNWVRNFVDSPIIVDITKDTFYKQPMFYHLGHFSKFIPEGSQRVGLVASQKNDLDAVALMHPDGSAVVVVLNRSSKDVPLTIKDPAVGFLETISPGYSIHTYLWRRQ
row,Compound,Potency
1,Cn1c(SCc2nc3ccccc3[nH]2)nnc1-c1cnccn1,inactive: > 76.9 µM
2,CCOCCCNS(=O)(=O)c1ccc(NC(=O)c2ccccc2)cc1,inactive: > 76.9 µM
3,O=C(O)CCc1nc(-c2ccc(Cl)cc2)no1,inactive: > 76.9 µM
4,O=C(OCC(=O)N1CCN(C(=O)c2ccco2)CC1)c1ccccc1C(=O)c1ccccc1,inactive: > 76.9 µM
5,COc1ccc(-c2noc(C)c2-c2ccc3ccccc3n2)c(O)c1,inactive: > 76.9 µM
6,Cc1cc2c(c(=O)n1Cc1ccco1)C(c1cccnc1)C(C#N)=C(N)O2 (centres undefined),inactive: > 76.9 µM
7,Cc1nn(-c2ccc(F)cc2)c2sc(C(=O)O)cc12,inactive: > 76.9 µM
8,Cn1c(SCC(=O)N2CCCc3ccccc32)nnc1-c1c[nH]c2ccccc12,inactive: > 76.9 µM
9,CCc1ccc(OCC(=O)OC2CCS(=O)(=O)C2)cc1 (centres undefined),inactive: > 76.9 µM
10,CCc1ccc(OCCCC(=O)O)c(Br)c1,inactive: > 76.9 µM
11,CC1(C)Oc2ccc(C(=O)NC3CCCC3)cc2N(CC(=O)N2CCOCC2)C1=O,inactive: > 76.9 µM
12,CCOC(=O)c1ccc(NC(=O)COC)cc1,inactive: > 76.9 µM
13,CC(=O)Nc1ccc(N2CCN(C(C)=O)CC2)cc1,inactive: > 76.9 µM
14,Cn1cccc1C(=S)N=P(C1CCCCC1)(N1CCOCC1)N1CCOCC1,inactive: > 76.9 µM
15,CCOC(=O)c1cc2sccc2n1CC(=O)N1CCc2ccccc21,inactive: > 76.9 µM
16,O=C(Nc1ccccc1)c1cccnc1N1CCOCC1,inactive: > 76.9 µM
17,Cc1nn(Cc2ccc(Cl)cc2)c(C)c1NC(=O)c1cc(-c2ccc3c(c2)OCO3)on1,inactive: > 76.9 µM
18,COCCCn1c(=S)[nH]c2ccc(N3CCOCC3)cc2c1=O,inactive: > 76.9 µM
19,Cc1nc2ccccn2c1C(=O)NCCCN1CCOCC1,inactive: > 76.9 µM
20,COc1ccc(CC(=O)Nc2cc(C)ccn2)cc1,inactive: > 76.9 µM
21,O=C(Nc1nccs1)C1CCCN1S(=O)(=O)c1ccc(Cl)cc1 (centres undefined),inactive: > 76.9 µM
22,CCc1ccc(N/C(SCc2cccc(F)c2)=C(/C#N)C(=O)NCc2ccco2)cc1,inactive: > 76.9 µM
23,COc1ccc(CCNC(=O)c2ccc(CN3CCOCC3)cc2)cc1,inactive
24,On1onc2c3cc(-c4ccccc4)nc3ccc21,active: 14.7 µM

row,Compound,Potency
1,CC1=C(C(=O)NCc2ccccc2)C(c2cccnc2)n2ncnc2N1 (centres undefined),inactive: > 76.9 µM
2,O=C1c2cccnc2C(O)N1Cc1ccccc1 (centres undefined),inactive: > 76.9 µM
3,O=C(Nc1cccnc1)C1(c2ccccc2)CCCC1,inactive: > 76.9 µM
4,Cc1ccc(NC(=O)CSc2nnc(-c3cnccn3)n2Cc2ccco2)cc1,inactive: > 76.9 µM
5,O=C(O)Cn1nnn(-c2ccccc2)c1=S,inactive: > 76.9 µM
6,COc1cc(C(=O)Nc2ccncc2)cc(OC)c1OC,inactive: > 76.9 µM
7,Cn1c(=O)c2c(nc(NCCc3ccccc3)n2CC(=O)NCCc2ccccc2)n(C)c1=O,inactive: > 76.9 µM
8,O=C(CCS(=O)(=O)c1cc(Br)cc2c1N(C(=O)C1CC1)CC2)NCc1ccco1,inactive: > 76.9 µM
9,COc1cc(OC)c(NC(=O)Nc2ccc(OC)c(OC)c2)cc1Cl,inactive: > 76.9 µM
10,COc1ccc(OC)c(/C=c2\sc3nc(-c4cccs4)nn3c2=O)c1,inactive: > 76.9 µM
11,CCOC(=O)N1CCN(C(=O)C2CCC(C(=O)N3CCN(C(=O)OCC)CC3)CC2)CC1 (centres undefined),inactive: > 76.9 µM
12,CC(=O)N1CCc2cc(S(=O)(=O)NC3CCCc4ccccc43)ccc21 (centres undefined),inactive: > 76.9 µM
13,CCN(CC(=O)Nc1ccc2c(c1)OCCO2)C(=O)C1CCCCC1,inactive: > 76.9 µM
14,CCOc1ccc(-c2nc3n(c(=O)c2C#N)CCCS3)cc1,inactive: > 76.9 µM
15,CC1(C)Cc2cccc(OCC(=O)Nc3cccnc3)c2O1,inactive: > 76.9 µM
16,CC1CCc2cc(F)ccc2N1C(=O)CCC(=O)O (centres undefined),inactive: > 76.9 µM
17,Cc1cccc(-n2nnnc2SC(C)C(=O)NCCC2=CCCCC2)c1 (centres undefined),inactive: > 76.9 µM
18,CC1CCCCN1C(=O)Cn1c(=O)oc2ccccc21 (centres undefined),inactive: > 76.9 µM
19,CC(=O)N1CCc2cc(S(=O)(=O)N3CCc4ccccc4C3)ccc21,inactive: > 76.9 µM
20,CC1CCCCC1NC(=O)c1cncc(Br)c1 (centres undefined),inactive: > 76.9 µM
21,CN1C(=O)c2ccc(NC(=O)C3CCCCC3)cc2C1=O,inactive: > 76.9 µM
22,Cc1ccc(NC(=O)CCn2c(=O)oc3ccccc32)c(C)c1,inactive: > 76.9 µM
23,CCOC(=O)c1oc2ccccc2c1NC(=O)c1cccs1,inactive: > 76.9 µM
24,c1cncc(-c2nn3c(-c4ccncc4)nnc3s2)c1,inactive: > 76.9 µM

row,Compound,Potency
1,CCOC(=O)C1(Cc2ccc(O)cc2)NC(c2ccco2)C2C(=O)N(c3ccccc3F)C(=O)C21 (centres undefined),inactive: > 76.9 µM
2,Nc1c(S(=O)(=O)c2cccs2)c2nc3ccccc3nc2n1Cc1ccc2c(c1)OCO2,inactive
3,O=C1c2ccccc2C(=O)N1CNc1ccccc1,inactive: > 76.9 µM
4,Cc1ccc2cc(CN(CCCN(C)C)C(=O)NCc3ccccc3)c(=O)[nH]c2c1C,inactive: > 76.9 µM
5,Cc1cc(C(=O)NCC(c2ccco2)N(C)C)no1 (centres undefined),inactive: > 76.9 µM
6,Cc1ccc(-c2nc3ncccn3c2Nc2ccc3c(c2)OCO3)o1,inactive: > 76.9 µM
7,O=C(Cn1nc(C(F)(F)F)c2c1CCCC2)NCc1ccco1,inactive: > 76.9 µM
8,Cc1cc(NC(=O)CSC2=Nc3ccccc3C3=NC(Cc4ccccc4)C(=O)N23)n[nH]1 (centres undefined),inactive: > 76.9 µM
9,CC1(C)Cc2nc3oc4c(N(CCO)Cc5ccccc5)ncnc4c3cc2CO1,inactive
10,COC(=O)c1c(N)sc(C(=O)N2CCOCC2)c1C,inactive: > 76.9 µM
11,CC12CCCCC1(O)[N+](=O)C1=C(CCCC1)N2[O-] (centres undefined),inactive: > 76.9 µM
12,CC(C)(C)NS(=O)(=O)c1cccc2nsnc12,inactive: > 76.9 µM
13,CCOC(=O)C1CCN(CC(=O)c2c(C)[nH]c3ccccc23)CC1,inactive: > 76.9 µM
14,CN(C)c1cccc(NC(=O)CCc2ccccc2)c1,inactive: > 76.9 µM
15,O=C(Cn1nnc2c(cnn2-c2ccc(F)cc2)c1=O)OC1CCCCC1,inactive: > 76.9 µM
16,CC(=O)Nc1nc2ccc(Br)cc2s1,inactive: > 76.9 µM
17,Cn1c(=O)c2c(nc(CN3CCN(c4ccc(F)cc4)CC3)n2CCN2CCOCC2)n(C)c1=O,inactive: > 76.9 µM
18,CC(NS(C)(=O)=O)C(c1cccs1)N1CCN(c2ccc(F)cc2)CC1 (centres undefined),inactive: > 76.9 µM
19,O=CN(Cc1ccco1)C1(C(=O)NC2CCCCC2)CCCCC1,inactive: > 76.9 µM
20,CCN(CC)C(=O)CSc1nc2ccccc2c(=O)[nH]1,inactive: > 76.9 µM
21,CCOC(=O)Cc1csc(NC(=O)CSc2nnc(C(C)C)n2CC)n1,inactive: > 76.9 µM
22,Cc1ccsc1C1C2=C(CCCC2=O)Nc2ncnn21 (centres undefined),inactive: > 76.9 µM
23,Cc1ccc(-n2c(N)c(-c3nc4ccccc4n3C)sc2=S)cc1,inactive: > 76.9 µM
24,COc1cc(NC(=O)Cn2c(-c3cncs3)nc3ccccc32)cc(OC)c1OC,inactive: > 76.9 µM

row,Compound,Potency
1,CCCOc1ccc(CSc2ncn[nH]2)cc1,inactive: > 76.9 µM
2,O=S(=O)(NC1CC2CCC1C2)c1ccc2c(c1)OCCO2 (centres undefined),inactive: > 76.9 µM
3,COc1ccc(CCC(=O)N2c3ccccc3CC2C)cc1 (centres undefined),inactive: > 76.9 µM
4,NC(Cc1ccc2nonc2c1)C(=O)O (centres undefined),inactive: > 76.9 µM
5,O=C(Oc1ccc(-c2ccccc2)cc1)N1CCOCC1,inactive: > 76.9 µM
6,CC(C)n1c(NCc2c[nH]c3ccccc23)nc2ccccc21,inactive: > 76.9 µM
7,Cc1onc(-c2ccccc2)c1C(=O)N1CCN(S(=O)(=O)c2ccc3c(c2)OCCO3)CC1,inactive: > 76.9 µM
8,CCN(CC)C(=O)COc1cccc2ccccc12,inactive: > 76.9 µM
9,O=C(CN(Cc1ccccc1Cl)C(=O)c1ccc(CN2CCOCC2)o1)NCc1ccccc1,inactive: > 76.9 µM
10,O=C(Nc1ccc2c(c1)OCCO2)c1c(F)c(F)c(F)c(F)c1F,inactive: > 76.9 µM
11,O=C(NCc1ccco1)c1sc2cccc(F)c2c1Cl,inactive: > 76.9 µM
12,Cc1noc(N)c1C(=O)Nc1ccc(F)c(Cl)c1,inactive: > 76.9 µM
13,O=c1oc2ccccc2cc1-c1nc2ccccc2o1,inactive: > 76.9 µM
14,CCn1c(-c2cccc(Br)c2)n[nH]c1=S,inactive: > 76.9 µM
15,COc1cc2nc(NC(=O)c3ccc(Cl)cc3)[nH]c(=O)c2cc1OC,inactive: > 76.9 µM
16,O=C(NCCC1=CCCCC1)C1CCN(S(=O)(=O)c2ccc(-n3cnnn3)cc2)CC1,inactive: > 76.9 µM
17,CCOC(=O)N1CCC(O)(c2cc(C)c(C)cc2C)CC1,inactive: > 76.9 µM
18,COC(=O)c1cn[nH]c1N,inactive: > 76.9 µM
19,CC1(C)CC(=O)C2=C(C1)NCN(Cc1ccccc1)C2,inactive: > 76.9 µM
20,Cn1c(=O)c2c(nc(OCC3COC(C)(C)O3)n2Cc2ccccc2F)n(C)c1=O (centres undefined),inactive: > 76.9 µM
21,O=C(Oc1ccc2cccc(OC(=O)N3CCOCC3)c2c1)N1CCOCC1,inactive: > 76.9 µM
22,Cc1ccc(C(C(=O)NC(C)(C)C)N(C(=O)c2csnn2)c2ccccc2F)o1 (centres undefined),inactive: > 76.9 µM
